Reference: the supplement of paper PMC8728848
The other results are listed elsewhere or left out.

Legend:
Assay in all cases: glycan array binding signal (z-score within array); higher = stronger binding
Conditions in all cases: glycan notation: IUPAC condensed, linker removed
[1] = biological target: Fuc(a1-2)[GalNAc(a1-3)]Gal(b1-3)GlcNAc(b1-3)GalNAc
In short: (§1)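 The Consortium for Functional Glycomics database supplied 3228 glycan arrays, of which those lacking an available protein sequence were dropped. The binding signal, a within-array Z-score, was averaged across arrays of the same protein sequence and across linkers. Negative scores can be read as non-binding.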

[2] = biological target: Fuc(a1-2)[GalNAc(a1-3)]Gal(b1-3)GlcNAc(b1-6)GalNAc
In short: as §1

[3] = biological target: Fuc(a1-2)[GalNAc(a1-3)]Gal(b1-4)Glc
In short: as §1

[4] = biological target: Fuc(a1-2)[GalNAc(a1-3)]Gal(b1-4)GlcNAc
In short: as §1

[5] = biological target: Fuc(a1-2)[GalNAc(a1-3)]Gal(b1-4)GlcNAc(b1-2)Man
In short: as §1

[6] = biological target: Fuc(a1-2)[GalNAc(a1-3)]Gal(b1-4)GlcNAc(b1-2)Man(a1-3)[Fuc(a1-2)[GalNAc(a1-3)]Gal(b1-4)GlcNAc(b1-2)Man(a1-6)]Man(b1-4)GlcNAc(b1-4)GlcNAc
In short: as §1

[7] = biological target: Fuc(a1-2)[GalNAc(a1-3)]Gal(b1-4)GlcNAc(b1-2)Man(a1-3)[Fuc(a1-2)[GalNAc(a1-3)]Gal(b1-4)GlcNAc(b1-2)Man(a1-6)]Man(b1-4)GlcNAc(b1-4)[Fuc(a1-6)]GlcNAc
In short: as §1

[8] = biological target: Fuc(a1-2)[GalNAc(a1-3)]Gal(b1-4)GlcNAc(b1-3)Gal(b1-4)GlcNAc
In short: as §1

[9] = biological target: Fuc(a1-2)[GalNAc(a1-3)]Gal(b1-4)GlcNAc(b1-3)Gal(b1-4)GlcNAc(b1-3)Gal(b1-4)GlcNAc
In short: as §1

[10] = biological target: Fuc(a1-2)[GalNAc(a1-3)]Gal(b1-4)GlcNAc(b1-3)GalNAc
In short: as §1

[11] = biological target: Fuc(a1-2)[GalNAc(a1-3)]Gal(b1-4)GlcNAc(b1-3)[Fuc(a1-2)[GalNAc(a1-3)]Gal(b1-4)GlcNAc(b1-6)]GalNAc
In short: as §1

[12] = biological target: Fuc(a1-2)[GalNAc(a1-3)]Gal(b1-4)GlcNAc(b1-6)GalNAc
In short: as §1

[13] = biological target: Fuc(a1-2)[GalNAc(a1-3)]Gal(b1-4)[Fuc(a1-3)]GlcNAc
In short: as §1

[14] = biological target: Fuc(a1-2)[GalNAc(a1-3)]Gal(b1-4)[Fuc(a1-3)]GlcNAc(b1-3)GalNAc
In short: as §1

[15] = biological target: Fuc(a1-2)[GalNAc(a1-4)]Gal(b1-4)GlcNAc
In short: as §1

[16] = biological target: Fuc(a1-2)[GalNAc(b1-3)]Gal
In short: as §1

[17] = biological target: Fuc(a1-3)GlcNAc
In short: as §1

[18] = biological target: Fuc(a1-3)[Gal(b1-4)]Glc6S
In short: as §1

[19] = biological target: Fuc(a1-3)[Gal(b1-4)]GlcNAc
In short: as §1

[20] = biological target: Fuc(a1-3)[Gal(b1-4)]GlcNAc(b1-2)Man
In short: as §1

[21] = biological target: Fuc(a1-3)[Gal(b1-4)]GlcNAc(b1-2)Man(a1-3)[Fuc(a1-3)[Gal(b1-4)]GlcNAc(b1-2)Man(a1-6)]Man(b1-4)GlcNAc(b1-4)GlcNAc
In short: as §1

[22] = biological target: Fuc(a1-3)[Gal(b1-4)]GlcNAc(b1-2)Man(a1-3)[Fuc(a1-3)[Gal(b1-4)]GlcNAc(b1-2)Man(a1-6)]Man(b1-4)GlcNAc(b1-4)[Fuc(a1-6)]GlcNAc
In short: as §1

[23] = biological target: Fuc(a1-3)[Gal(b1-4)]GlcNAc(b1-3)Gal(b1-3)[Fuc(a1-4)]GlcNAc
In short: as §1

[24] = biological target: Fuc(a1-3)[Gal(b1-4)]GlcNAc(b1-3)Gal(b1-4)[Fuc(a1-3)]GlcNAc
In short: as §1

[25] = biological target: Fuc(a1-3)[Gal(b1-4)]GlcNAc(b1-3)Gal(b1-4)[Fuc(a1-3)]GlcNAc(b1-3)Gal(b1-4)[Fuc(a1-3)]GlcNAc
In short: as §1

[26] = biological target: Fuc(a1-3)[Gal(b1-4)]GlcNAc(b1-3)GalNAc
In short: as §1

[27] = biological target: Fuc(a1-3)[Gal(b1-4)]GlcNAc(b1-6)GalNAc
In short: as §1

[28] = biological target: Fuc(a1-3)[Gal(b1-4)]GlcNAc(b1-6)[Gal(b1-3)GlcNAc(b1-3)]Gal(b1-4)Glc
In short: as §1

[29] = biological target: Fuc(a1-3)[Gal(b1-4)]GlcNAc6S
In short: as §1

[30] = biological target: Fuc(a1-3)[Gal3S(b1-4)]Glc
In short: as §1

[31] = biological target: Fuc(a1-3)[Gal3S(b1-4)]GlcNAc
In short: as §1

[32] = biological target: Fuc(a1-3)[Gal3S(b1-4)]GlcNAc6S
In short: as §1

[33] = biological target: Fuc(a1-3)[GalNAc(b1-4)]GlcNAc
In short: as §1

[34] = biological target: Fuc(a1-3)[GalNAc(b1-4)]GlcNAc6S
In short: as §1

[35] = biological target: Fuc(a1-4)GlcNAc
In short: as §1

[36] = biological target: Fuc(b1-3)GlcNAc
In short: as §1

[37] = biological target: Gal(a1-2)Gal
In short: as §1

B1: DrGal9 (Danio rerio) (protein)
chain: MAFYQQPPYYNPRIPFSGPIQGGLQDGKSIIISGRVLPGANRFHVNLQCGSHSEANVALHFNPRYEDTDYVVNNSYLNRTWGSEERKYESPFAQGQTFTLQILVAQDKYKISTNGRHFMDYKHRIPFTQVDTVAVEGMVEVNSVAFQNPAGFIPPQAGYAPQYAVPPGCGFPAFPSAPNYTIPHKTVMNGGLHPGKNIVINGVVNPNAKSIIFNLCYRSGIAFHYNPRFDENVVVRNTNQMEKWGAEERFGGLPFHKGQPFQVTISCNPQHYNVFVNGKQEHTYKHRYTKLNDIDILEICGDLQLTSVQA
[1]
  glycan array binding signal (z-score): -0.34
[2]
  glycan array binding signal (z-score): -0.403
[3]
  glycan array binding signal (z-score): -0.384
[4]
  glycan array binding signal (z-score): -0.391
[5]
  glycan array binding signal (z-score): -0.417
[6]
  glycan array binding signal (z-score): -0.329
[7]
  glycan array binding signal (z-score): -0.388
[8]
  glycan array binding signal (z-score): -0.199
[9]
  glycan array binding signal (z-score): 0.375
[10]
  glycan array binding signal (z-score): -0.416
[11]
  glycan array binding signal (z-score): -0.198
[12]
  glycan array binding signal (z-score): -0.409
[13]
  glycan array binding signal (z-score): -0.36
[14]
  glycan array binding signal (z-score): -0.336
[15]
  glycan array binding signal (z-score): -0.386
[16]
  glycan array binding signal (z-score): -0.234
[17]
  glycan array binding signal (z-score): -0.395
[18]
  glycan array binding signal (z-score): -0.345
[19]
  glycan array binding signal (z-score): -0.386
[20]
  glycan array binding signal (z-score): -0.386
[21]
  glycan array binding signal (z-score): -0.409
[22]
  glycan array binding signal (z-score): -0.385
[23]
  glycan array binding signal (z-score): -0.38
[24]
  glycan array binding signal (z-score): -0.375
[25]
  glycan array binding signal (z-score): -0.405
[26]
  glycan array binding signal (z-score): -0.397
[27]
  glycan array binding signal (z-score): -0.378
[28]
  glycan array binding signal (z-score): 0.002
[29]
  glycan array binding signal (z-score): -0.316
[30]
  glycan array binding signal (z-score): -0.389
[31]
  glycan array binding signal (z-score): -0.395
[32]
  glycan array binding signal (z-score): -0.346
[33]
  glycan array binding signal (z-score): -0.355
[34]
  glycan array binding signal (z-score): -0.402
[35]
  glycan array binding signal (z-score): -0.371
[36]
  glycan array binding signal (z-score): -0.38
[37]
  glycan array binding signal (z-score): -0.41
